# Source: the supplement of paper PMC3334620
# Over roughly 33,000 sequences, “E-score (-0.5 to 0.5)” has its median near -0.035; the highest 2% begin near 0.34. The list shows a part of the results.
# Biological target: T1, Mot3 (UniProt P54785)
# T1 sequence: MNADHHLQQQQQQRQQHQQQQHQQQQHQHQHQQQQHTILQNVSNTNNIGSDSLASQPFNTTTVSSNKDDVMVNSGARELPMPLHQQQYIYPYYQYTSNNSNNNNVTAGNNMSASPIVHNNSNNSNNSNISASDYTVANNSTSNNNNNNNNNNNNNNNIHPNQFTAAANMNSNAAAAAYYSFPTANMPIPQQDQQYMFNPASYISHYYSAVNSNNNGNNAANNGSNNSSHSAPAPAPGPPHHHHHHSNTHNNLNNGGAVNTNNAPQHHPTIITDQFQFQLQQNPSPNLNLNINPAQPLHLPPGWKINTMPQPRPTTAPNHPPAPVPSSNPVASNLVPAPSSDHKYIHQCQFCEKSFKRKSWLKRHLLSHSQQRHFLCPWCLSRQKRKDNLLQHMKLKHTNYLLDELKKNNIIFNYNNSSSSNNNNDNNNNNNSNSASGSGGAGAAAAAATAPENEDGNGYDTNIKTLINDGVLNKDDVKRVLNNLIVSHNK
# Assay: PBM E-score (8-mer binding enrichment) (E-score (-0.5 to 0.5)); higher = stronger / more preferred TF binding; most listed sequences are background and not binding sites
# Settings: protein concentration: 200 nM; construct: GST-full length
# Procedure, shortened: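 Each ungapped eight-base word and its reverse complement, pooled, received an E-score from the Universal PBM Analysis Suite. Underlying scans, normalised with masliner, recorded fluorescent anti-GST bound to GST-tagged yeast transcription factors. These were applied at about 100-200 nM to universal all-10-mer Agilent arrays double-stranded by primer extension.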
row,Sequence,PBM E-score
1,AGAGCCAA,0.0137
2,TGGGACCA,-0.201
3,GCTGGACA,-0.248
4,AAGTGCCG,-0.262
5,CTCCATAA,0.00206
6,CTAAGACC,-0.0828
7,CTGGCAAA,-0.0815
8,ATCTTCGA,0.00733
9,AATACCCG,0.101
10,ACTCCAAT,-0.0757
11,GCGTGAAA,0.153
12,CTGAACTC,-0.12
13,TCCTCCAA,-0.0985
14,ATGACTGC,-0.153
15,GAGTGTGC,0.0775
16,ACTATGTA,0.36
17,ATGACTTG,-0.0353
18,GTGCGATA,-0.123
19,GCCCACGA,-0.208
20,AGCGAGTC,-0.235
21,AGTGCAAG,0.0142
22,AACCGAGC,-0.139
23,ATGGCCTC,-0.229
24,CCTAGGGA,-0.256
25,CCCCAAGC,-0.18

row,Sequence,PBM E-score
1,CGGCCGAG,-0.165
2,TCAATAGA,-0.118
3,ACAACGCC,0.105
4,GAGAATGC,-0.0679
5,TACATAAA,0.28
6,CACAATTC,0.0732
7,GAGCGCCC,-0.292
8,GCTATAAA,0.0828
9,CTTAGCAC,-0.0517
10,GTTGTTAA,0.275
11,CGTAAGAG,0.158
12,GCTAAGAA,-0.122
13,ACCATACA,-0.0574
14,CCTGAATC,0.142
15,TATGGAGA,-0.267
16,ACGTACCG,0.00315
17,CGTTCGTA,0.144
18,GAATGATC,-0.263
19,AGGTACCT,0.434
20,GGTTTCCA,-0.188
21,CGTTAGCA,0.0689
22,AGCATCGG,-0.265
23,AGCCGGCT,-0.321
24,AGGATCTG,-0.111
25,CTTAGCCC,-0.079

row,Sequence,PBM E-score
1,AGTTAGTA,0.137
2,ACTGCTAC,-0.00805
3,GACGAAAA,0.131
4,CGGGCAAA,0.0704
5,AGGCTTTA,0.0362
6,ATCCTTAC,0.115
7,ATAGATGA,0.0867
8,CAGAGCCA,-0.192
9,ACACGGAA,0.26
10,CTCGACAA,-0.0271
11,GTTTTGGA,0.0391
12,AACCTACG,0.244
13,CAATATGG,-0.152
14,ATCGATAA,-0.12
15,ACCCGTGG,-0.276
16,CAGCTTGC,0.0301
17,GCGAACGC,0.019
18,TAAGTTCA,0.0189
19,CACTGTTC,-0.0593
20,CTAGCAGC,-0.257
21,GCAGCTAA,-0.0942
22,GAAATTAC,0.249
23,CGCAGTAA,0.0257
24,ATCTGCAG,-0.00462
25,GCATCGTA,-0.112

row,Sequence,PBM E-score
1,AGTTCGGG,-0.0145
2,GCAGTCTA,-0.254
3,AAAAGTAC,0.117
4,GGTTAGTA,0.0741
5,ATATACAG,0.1
6,ACTAGTTC,0.0677
7,ACCCCTTG,-0.111
8,ATGTTACA,0.336
9,CCAGATTA,0.0153
10,ATCCGTCA,-0.123
11,AAGTTTCT,-0.0129
12,ATTTCCTA,0.371
13,TCAGCAAA,0.0966
14,ACGGGCGG,-0.212
15,CGCGACCG,0.0478
16,GAGAGCGC,-0.317
17,AAGCTTTC,0.0664
18,CAAGCCGG,-0.0974
19,TCGACTCA,0.112
20,ACGCCTAT,0.0777
21,GATTTGAA,0.14
22,CCGTCAAA,-0.0163
23,CGGATAGC,-0.167
24,TCGCCCGA,-0.0433
25,GAGCCAGA,-0.045

row,Sequence,PBM E-score
1,ACAGTCTG,-0.263
2,GAGAGCCC,-0.378
3,CTCAGTCA,-0.0001
4,AGCTGGTA,-0.0734
5,GGAAATTA,0.196
6,GACACGCC,0.0713
7,GTGGAGGA,-0.166
8,CTGACTGC,-0.0379
9,ACTAAGGA,0.033
10,TACTCAGA,-0.0365
11,ATTAGAGC,0.0474
12,ACATCGAT,0.099
13,CTCGCGAA,-0.0724
14,GCCTGATA,0.184
15,AAAGGAAG,0.059
16,CTAGGCAC,0.485
17,GTACCTCA,0.113
18,GACCACTC,-0.237
19,AGCTCGCA,-0.214
20,AACTCGCT,-0.0209
21,TACGATAA,-0.032
22,CAAATTTC,0.0703
23,AGCATCAT,-0.137
24,ACATACCG,0.215
25,ACATCATA,0.119

row,Sequence,PBM E-score
1,CCATCCCC,-0.185
2,CACATGCG,0.108
3,AGCGTGGG,-0.307
4,AATTAGCC,-0.134
5,AGATTATG,0.0857
6,ATTACGAG,0.275
7,CCGGTCCC,-0.277
8,CTCTTAGA,0.0357
9,TCGTCACA,-0.036
10,AGAAAAAC,0.061
11,ATAAGTAA,0.151
12,CCTCTTCA,-0.171
13,GTGAGCCA,-0.12
14,ATAAATAA,0.12
15,CAATGGAA,0.0358
16,ACGGTTTG,-0.0879
17,AACTTGCA,-0.105
18,GCCCCTGA,-0.189
19,CCGTGAAA,0.0176
20,CTTTACTA,0.235
21,CGGGATCC,-0.271
22,CCACTTTC,-0.131
23,ACAGGCCC,0.0653
24,AACTAAAT,-0.0125
25,AATCACCA,-0.0388

row,Sequence,PBM E-score
1,AGATACGA,-0.0356
2,ATGGGCTG,-0.181
3,CACTAGCA,-0.0744
4,GTAACGAC,-0.0159
5,CATTCTTC,-0.0746
6,TACCAAAA,0.144
7,AGTGGCGG,-0.195
8,CGAACCGA,-0.023
9,TAGCTCCA,-0.00582
10,TCGTGCCA,-0.155
11,CAGCCCAA,-0.0603
12,CCCACTGC,-0.32
13,GGCCACGA,-0.096
14,TCGGCCAA,-0.137
15,CGAATGGC,-0.189
16,CAGGGACG,0.0493
17,CTAAAGAG,-0.121
18,CTAGACGC,-0.206
19,CATAGCAC,-0.0243
20,AACATGTG,0.278
21,CGGTGACA,-0.144
22,CCCCGACG,-0.206
